Results as given in the supplement of paper PMC3334620.
Whole data set: some 33,000 sequences, median “E-score (-0.5 to 0.5)” near -0.016, cut for the highest 2% near 0.32. This is one part of the list.

target: T1, Stp1 (UniProt B3LFK1); test: PBM E-score (8-mer binding enrichment) (E-score (-0.5 to 0.5)); higher = stronger / more preferred TF binding; most listed sequences are background and not binding sites; settings: protein concentration: 200 nM; construct: GST-full length
T1 sequence: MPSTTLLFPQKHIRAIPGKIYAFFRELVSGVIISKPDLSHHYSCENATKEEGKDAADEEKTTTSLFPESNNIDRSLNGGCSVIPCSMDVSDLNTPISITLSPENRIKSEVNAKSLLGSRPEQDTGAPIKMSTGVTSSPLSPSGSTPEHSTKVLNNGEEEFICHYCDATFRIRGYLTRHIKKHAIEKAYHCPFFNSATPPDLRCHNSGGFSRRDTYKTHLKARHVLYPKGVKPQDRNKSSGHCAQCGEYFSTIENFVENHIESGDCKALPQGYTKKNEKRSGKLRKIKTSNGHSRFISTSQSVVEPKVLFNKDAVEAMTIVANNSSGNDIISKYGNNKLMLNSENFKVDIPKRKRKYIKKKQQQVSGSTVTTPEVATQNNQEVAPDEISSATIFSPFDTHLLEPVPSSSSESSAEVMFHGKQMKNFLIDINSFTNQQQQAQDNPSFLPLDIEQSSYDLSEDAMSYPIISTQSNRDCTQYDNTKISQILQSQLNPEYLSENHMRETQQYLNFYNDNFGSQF
Summary of the method: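 Yeast transcription factors, full-length or as DNA-binding domains, were expressed with a GST tag using PURExpress in vitro transcription/translation. At about 100-200 nM they were applied to universal all-10-mer Agilent arrays, double-stranded by primer extension on fresh or once-stripped slides. Fluorescent anti-GST detected bound protein, and masliner normalised the scans. E-scores for ungapped eight-base words, pooled with reverse complements, came from the Universal PBM Analysis Suite.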

Sequence	PBM E-score
CGACATGC	0.156
AGTTACGA	0.113
AGGCGGAC	-0.0896
AACTTTAG	-0.0306
GACACGTC	-0.153
CTTCAAGA	0.0445
AGCGAGCG	0.0624
GATATTAA	0.163
GATCTTAC	0.029
GCACGCGC	0.239
ACGAGATC	-0.0452
ACGCTCCG	-0.177
GATCTTAA	0.0843
AGGCTTCG	-0.0078
AGTTCGTC	0.049
CACCGGCA	0.105
CTGCGTCA	-0.0654
CGCGTCCC	-0.0263
ATTGCCTA	-0.11
ATGTATAG	-0.0149
CTTGCCTA	-0.0283
AGACTGAC	-0.226

Sequence	PBM E-score
ACTGGGCT	-0.308
GTTAAGGA	-0.0109
AGTAATTG	0.109
AGTCAATC	0.0077
AAGAGGGT	-0.207
ATCCCAAT	0.0705
AGAGCGCA	-0.322
AACTCGAC	-0.0357
AGTGCCTA	0.21
ACTGCGAG	-0.217
AATTTGGG	-0.0818
CACCTAGG	-0.314
AAGTGCAG	-0.243
ACCCGATC	-0.248
CGGGACGC	-0.108
AAGAGCTC	-0.181
ACAACTGT	-0.164
CTAGCATC	-0.0558
GTGGCAAA	0.117
ATGGGGGG	-0.329
ACGTGCAC	0.0946
GCCTGAGC	-0.103

Sequence	PBM E-score
ACTACGGG	-0.222
AGGTCTCC	-0.155
CAATAGAA	-0.0423
ACTACACC	-0.082
CTCTCTAA	-0.0711
CTGAGCCC	-0.108
ATCTCCTA	-0.214
CTTTCGGA	-0.0677
AGGAACGC	-0.076
GAGCATTA	-0.0495
AGTGTGTG	-0.093
GAGGAACC	-0.112
CATCAATC	0.0339
CCGCTTGC	0.214
CGCCTTCA	0.0777
AACTGGAA	0.00044
GGTCTTAC	-0.134
ACTTGGCC	-0.172
AGCTCAGA	-0.117
CAGGTTCC	-0.223
ATGGACCG	-0.0868
CCATACCA	-0.0553

Sequence	PBM E-score
CTTGTGAC	0.0615
CATGGTTC	0.0473
ATTGAGGC	0.146
ATACAGCC	-0.0239
CACCCCGC	0.137
AATATGGA	0.0277
ACGCACCT	-0.233
AAAGACGG	0.098
AACGTGTA	-0.198
GGGCAATA	0.0993
ATATCAGC	0.0273
CGACTTTA	-0.124
TGAATGAA	0.0194
AGATACCT	-0.132
CTAGAAAG	0.117
GCGGTGTA	-0.137
AGATTACT	0.0619
ATTACATA	0.072
TCATTACA	0.147
CTAAACTC	0.0286
